The full ranking holds about 33,000 sequences; the median of “E-score (-0.5 to 0.5)” is about -0.012, and the highest 2% start at about 0.29. Some of the results follow.
Each sequence was assayed against T1, Ybr033w (UniProt P38073) (assay: PBM E-score (8-mer binding enrichment) (E-score (-0.5 to 0.5)); higher = stronger / more preferred TF binding; most listed sequences are background and not binding sites). Conditions: protein concentration: 200 nM; construct: GST-full length.
T1 sequence: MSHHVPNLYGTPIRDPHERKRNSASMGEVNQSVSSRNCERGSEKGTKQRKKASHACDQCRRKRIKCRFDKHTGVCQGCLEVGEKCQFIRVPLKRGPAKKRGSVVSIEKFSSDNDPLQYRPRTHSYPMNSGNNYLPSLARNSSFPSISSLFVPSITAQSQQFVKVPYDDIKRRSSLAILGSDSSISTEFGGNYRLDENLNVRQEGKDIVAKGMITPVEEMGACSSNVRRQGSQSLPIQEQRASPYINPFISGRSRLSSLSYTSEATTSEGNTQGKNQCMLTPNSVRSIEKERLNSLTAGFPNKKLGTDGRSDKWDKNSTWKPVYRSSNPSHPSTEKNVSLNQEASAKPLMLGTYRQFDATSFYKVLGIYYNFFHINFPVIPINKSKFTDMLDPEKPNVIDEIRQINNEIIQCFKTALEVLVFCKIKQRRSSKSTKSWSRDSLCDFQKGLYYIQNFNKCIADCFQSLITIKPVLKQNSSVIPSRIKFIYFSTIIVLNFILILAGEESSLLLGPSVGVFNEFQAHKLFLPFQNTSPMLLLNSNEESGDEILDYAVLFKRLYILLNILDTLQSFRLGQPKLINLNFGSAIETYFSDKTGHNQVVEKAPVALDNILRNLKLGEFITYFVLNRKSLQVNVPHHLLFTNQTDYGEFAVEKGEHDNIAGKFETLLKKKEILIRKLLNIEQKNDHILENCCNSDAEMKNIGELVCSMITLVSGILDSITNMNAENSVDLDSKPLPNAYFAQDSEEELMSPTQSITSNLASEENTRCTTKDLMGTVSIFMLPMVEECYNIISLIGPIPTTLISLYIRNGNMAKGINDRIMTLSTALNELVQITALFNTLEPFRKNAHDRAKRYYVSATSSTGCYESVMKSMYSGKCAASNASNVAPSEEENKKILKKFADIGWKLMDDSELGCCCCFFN
Description: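 Universal 'all 10-mer' protein binding microarrays (Agilent AMADID 015681) probed with GST-tagged S. cerevisiae TFs (full-length or DBD) made by in vitro transcription/translation (PURExpress), about 100-200 nM. Bound TF was detected with fluorescent anti-GST. Each ungapped 8-mer (which stands for itself and its reverse complement) is scored by the PBM enrichment score (E-score), a modified Wilcoxon-Mann-Whitney statistic from -0.5 to +0.5, computed with the Universal PBM Analysis Suite. Scale: above 0.35 generally sequence-specific binding.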

| Sequence | PBM E-score |
| --- | --- |
| TAAGCCGA | 0.113 |
| AAGTGAGC | -0.0662 |
| ACGACCTG | -0.179 |
| CCCACACA | -0.13 |
| GGGGATGA | -0.126 |
| ACTTCTGA | 0.0394 |
| CAAACAAC | 0.166 |
| ATAAACCC | 0.165 |
| GTAAGCTA | 0.0775 |
| ACTACCTC | -0.0777 |
| GACAACGC | -0.145 |
| AAGAATCG | 0.15 |
| CCTGATGA | 0.0306 |
| AGCGTCAG | -0.119 |
| ACTTCGTA | 0.0589 |
| ACTTACCC | 0.114 |
| GCCACCCA | -0.201 |
| ATCAATTG | 0.252 |
| CTCTTTGA | -0.0179 |
| ACCTCGCG | -0.105 |
| ATGAAGGA | 0.224 |
| CAATTGAA | 0.00129 |
| GTTATGAA | 0.217 |
| ACGTGCAG | -0.233 |
| CCGTTGCA | -0.134 |

| Sequence | PBM E-score |
| --- | --- |
| CGCTGAAG | -0.091 |
| ACCTACCG | -0.0859 |
| GAGTCATC | -0.0578 |
| AACTCCTT | 0.0698 |
| CTGGATGC | -0.181 |
| CAAAGAAA | 0.0776 |
| TTCCGGAA | 0.316 |
| AAATCCGT | 0.0801 |
| GACTCTCC | -0.336 |
| GACTGACA | 0.016 |
| AAGCTACT | 0.0682 |
| ATTCGGTG | 0.0604 |
| AGAGTCCA | -0.0928 |
| ACCTTGCG | 0.0216 |
| CTACCGGC | -0.28 |
| CGTGCTCC | -0.164 |
| GCTCCATA | -0.175 |
| ACCCCGGG | -0.327 |
| GGGAGTCA | -0.226 |
| ATTATCGG | 0.0549 |
| GACAGAAC | 0.124 |
| ACCCCATG | 0.026 |
| ATAACCAT | 0.0101 |
| CTGCAAGA | 0.0509 |
| ACAGTTTG | 0.00732 |

| Sequence | PBM E-score |
| --- | --- |
| AAGCTAAA | 0.107 |
| CAGTTGCG | 0.0591 |
| AGCGGGCA | -0.253 |
| CGGTCACC | -0.232 |
| ATTTTGAG | 0.228 |
| CAAATGGA | 0.161 |
| CAAGCCAG | -0.0473 |
| AGCCTATC | -0.231 |
| ACTGTACG | -0.167 |
| ATAACGTG | -0.0946 |
| ACACTGGT | -0.0783 |
| AATCCACC | -0.07 |
| CGAGCCAG | 0.00891 |
| CCGTACAA | 0.0114 |
| CACAAAAA | 0.233 |
| CACTAGCC | -0.1 |
| ATGTGCAA | -0.00136 |
| ATATGAAG | 0.0849 |
| GCTGGTTA | -0.0645 |
| CATACCAG | -0.0355 |
| ATGTCGCC | -0.137 |
| AAAGTTAG | 0.297 |
| TAAGTAAA | 0.105 |
| AGGAAATG | 0.146 |
| AACAGCTC | -0.106 |

| Sequence | PBM E-score |
| --- | --- |
| GCGCCCCA | -0.237 |
| AGCAGGTG | 0.102 |
| ACGATTAT | 0.133 |
| AACCGCCT | 0.0265 |
| GATGACGC | -0.0995 |
| AGTATTTG | 0.159 |
| AGAGCAAC | -0.226 |
| GAAAGACA | 0.145 |
| CGCATGGC | -0.141 |
| CGGCAATC | -0.0982 |
| ACATACCA | -0.143 |
| CTCATTCC | 0.148 |
| GGTCGGGA | 0.0545 |
| ACGTAACT | 0.0228 |
| CCGGATCG | -0.141 |
| ATTGCGGG | 0.147 |
| AACGTTAT | 0.101 |
| AGCGCTAT | 0.179 |
| AAGACCGA | 0.126 |
| GCAGTTCA | -0.00057 |
| CGTTCTGA | -0.0104 |
| CCGGGTTA | 0.0138 |
| CAGGTTTC | 0.143 |
| AGAACTCG | 0.0115 |
| AGTCACGA | -0.204 |

| Sequence | PBM E-score |
| --- | --- |
| CTCTCACA | 0.0894 |
| CCGGAGGC | -0.267 |
| CGTTACTA | 0.0748 |
| AAGCGCTC | -0.00157 |
| CTGTGAGA | -0.0752 |
| GTGTGCCA | -0.144 |
| ATTATCCG | 0.469 |
| AAGTCAAT | 0.216 |
| ATTCCTAC | 0.00845 |
| GACATATA | 0.185 |
| TCAAACGA | 0.134 |
| CACGGACA | -0.164 |
| TACTGCGA | 0.0219 |
| AGGCCCCT | -0.39 |
| CATTTTAC | 0.298 |
| ATTCATTC | 0.277 |
| AGACATCC | -2e-05 |
| AGCCATAA | -0.0065 |
| GAGACTTA | -0.107 |
| AAGCGTAA | 0.103 |
| CTCCATGA | 0.0454 |
| GTAAGTAC | -0.0356 |
| CTTATGCA | 0.164 |
| AGATTACC | 0.117 |
| ACCAAATC | 0.105 |

| Sequence | PBM E-score |
| --- | --- |
| AGGTTCTC | -0.112 |
| CTTCGGCA | -0.057 |
| GCCTGCTA | -0.109 |
| CCACCCAC | -0.155 |
| AGTGAGGC | -0.0821 |
| AGCACGAA | 0.134 |
| ATCTGGCC | -0.145 |
| GTCTTGTA | -0.116 |
| ATACCGCC | -0.0566 |
| TAATTGCA | 0.187 |
| GTCTAGAC | -0.252 |
| CCTCCCAC | -0.188 |
| TAATGGTA | 0.136 |
| TAGTAACA | 0.141 |
| AAATTGTA | 0.22 |
| GCAGCTTA | -0.12 |
| CCCCAAGA | -0.0572 |
| ACGAGTTA | 0.213 |
| ATTGTATG | 0.14 |
| AATGCCTC | -0.102 |
| CAGCCGTC | -0.0893 |
| CGCTATTC | 0.177 |
| GCAGCCTA | -0.0605 |
| GTGCATTA | 0.129 |
| TGTATACA | 0.341 |

| Sequence | PBM E-score |
| --- | --- |
| CGAATCCA | 0.0137 |
| ATTTAAGC | 0.173 |
| ACACCCAG | -0.126 |
| TCCCTTCA | -0.122 |
| AACATCGG | -0.0458 |
| CTATCCAA | -0.0816 |
| AATAAGGG | -0.0487 |
| AGCATCTA | 0.0135 |
| GGCACCTA | -0.213 |
| CACATCGG | -0.0334 |
| AGTCGAGC | -0.229 |
| AGTAATTC | 0.318 |
| AAACATTG | 0.113 |
| AGAGAATA | 0.234 |
| CATATGTA | 0.0437 |
| CTGTCCTC | -0.154 |
| ACGCTACG | -0.12 |
| GACGTAGC | -0.147 |
| CGTAAACA | 0.162 |
| GTATGTGA | 0.0688 |
| GTCAGGTA | -0.0885 |
| ATAGAGCA | 0.166 |
| CTTCATTA | 0.291 |
| TAGCTTCA | 0.0579 |
| CGACATGA | -0.0827 |

| Sequence | PBM E-score |
| --- | --- |
| GGACCAAC | -0.182 |
| AGCTGACG | -0.119 |
| ATATTCTA | 0.217 |
| AAATGGGC | -0.0811 |
| CGAGGTAC | -0.0291 |
| TAGTGATA | 0.0686 |
| CTACTTCC | -0.0236 |
| AAACGAAC | 0.121 |
| CGCTACCA | -0.151 |
| GGAGATGA | -0.121 |
| TACGAGCA | 0.0219 |
| GGTGATGA | 0.0123 |
| CAACACCA | -0.0261 |
| CATCAACC | 0.259 |
| CATTTTGC | 0.211 |
| GGTCAACA | 0.0823 |
| AGGGATAC | -0.0966 |
| AACCAGCG | -0.0714 |
| CCTTTTCC | -0.15 |
| GTTGCTGA | 0.0842 |
| ACAAACAC | 0.186 |
| CATTAGCG | -0.0295 |
| AGCGCATG | -0.226 |
| AGAGATGA | -0.0776 |
| ATGCTCAG | 0.125 |

| Sequence | PBM E-score |
| --- | --- |
| AGCAGAAA | 0.134 |
| GTTCATGA | 0.236 |
| CTCAATAC | 0.12 |
| ACTTTGAC | 0.127 |
| ATGAAGCA | -0.0134 |
| AACCCAAC | 5e-05 |
| ACTAGAAA | 0.185 |
| GATTCCTA | 0.135 |
| TAGTCCCA | -0.126 |
| TGATCCAA | 0.165 |
| AAGTGGCC | -0.135 |
| ATTGCGTA | 0.109 |
| ATAGCTAT | 0.13 |
| CATCCGCG | -0.117 |
| AATGACGT | -0.102 |
| AAGTACTA | 0.25 |
| ATAAGGAT | 0.297 |
| CGTAATGA | -0.0174 |
| CTTGAAGA | -0.0808 |

— the supplement of paper PMC3334620
